Results: publication PMC4336329 (PLoS ONE, 2015)
The whole screen tested about 310,000 compounds, of which about 14,000 (4.5%) showed an effect of 50% or more. The effect is printed as a negative number. This is one part of the list.

Each compound was assayed against human ether-à-go-go-related gene (hERG) potassium channel (human, UniProt Q12809) (assay: primary screen, population patch clamp on CHO cells stably expressing hERG).
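Further: peak tail current of the secondary pulse compared with the same well before compound.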

human ether-à-go-go-related gene (hERG) potassium channel, sequence (Q12809 whole entry, looked up): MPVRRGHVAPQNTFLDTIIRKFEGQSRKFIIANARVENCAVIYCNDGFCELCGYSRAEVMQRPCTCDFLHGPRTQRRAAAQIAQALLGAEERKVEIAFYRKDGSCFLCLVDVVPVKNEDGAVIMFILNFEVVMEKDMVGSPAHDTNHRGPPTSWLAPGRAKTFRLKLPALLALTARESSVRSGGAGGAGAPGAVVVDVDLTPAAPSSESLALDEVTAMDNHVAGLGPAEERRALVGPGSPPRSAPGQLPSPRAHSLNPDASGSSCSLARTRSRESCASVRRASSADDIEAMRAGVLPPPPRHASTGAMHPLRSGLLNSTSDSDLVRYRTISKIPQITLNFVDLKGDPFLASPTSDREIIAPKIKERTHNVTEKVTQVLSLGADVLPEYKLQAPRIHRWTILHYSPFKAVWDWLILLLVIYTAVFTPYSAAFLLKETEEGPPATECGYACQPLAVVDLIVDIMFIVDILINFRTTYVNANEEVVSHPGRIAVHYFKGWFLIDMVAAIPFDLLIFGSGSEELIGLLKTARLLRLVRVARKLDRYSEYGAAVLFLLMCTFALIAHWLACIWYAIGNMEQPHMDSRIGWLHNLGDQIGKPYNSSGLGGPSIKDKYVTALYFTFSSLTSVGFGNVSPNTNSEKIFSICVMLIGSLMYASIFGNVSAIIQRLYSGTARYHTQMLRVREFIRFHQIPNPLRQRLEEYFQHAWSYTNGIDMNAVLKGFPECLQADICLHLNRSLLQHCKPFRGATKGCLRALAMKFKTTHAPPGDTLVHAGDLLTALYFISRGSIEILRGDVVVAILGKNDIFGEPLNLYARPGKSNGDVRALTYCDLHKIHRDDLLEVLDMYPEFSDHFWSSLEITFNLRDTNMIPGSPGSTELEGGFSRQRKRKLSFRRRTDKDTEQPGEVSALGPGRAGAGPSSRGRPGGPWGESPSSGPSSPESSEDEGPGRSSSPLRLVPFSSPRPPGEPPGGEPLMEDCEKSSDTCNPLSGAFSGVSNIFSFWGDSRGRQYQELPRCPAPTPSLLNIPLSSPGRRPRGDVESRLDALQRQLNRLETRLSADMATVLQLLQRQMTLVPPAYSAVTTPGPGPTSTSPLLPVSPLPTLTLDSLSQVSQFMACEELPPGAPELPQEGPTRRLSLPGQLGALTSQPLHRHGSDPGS

In order of falling “hERG current change (%, negative = inhibition) at 10uM” value:
1. O=S(=O)(c1cc(Cl)ccc1Cl)n1cccn1  30.9%
2. Cc1cc(C)nc(NS(=O)(=O)c2ccc(NC(=O)Cc3ccccc3)cc2)n1  25.2%
3. CC/C(=C/c1ccccc1)c1cccc2[nH]c3c(OC)cccc3c12  23.3%
4. CCc1cc2c(-c3ccccc3)cc(=O)oc2cc1OC(C)C(=O)O (stereo not shown)  21.2%
5. Cc1sc2nc(SCC(=O)NCc3cccs3)[nH]c(=O)c2c1C  19.7%
6. CC(C)c1onc(C(=O)Nc2ccc3c(c2)OCO3)c1[N+](=O)[O-]  19.7%
7. CC(/C=C/c1ccco1)=N\NC(=O)CNc1cccc(C)c1  18.1%
8. CNC(=O)c1cc(C(=O)c2ccc(Cl)cc2)c[nH]1  17.1%
9. Cn1c(=O)c2ccccc2n2c(=S)[nH]nc12  16.2%
10. O=C(CSc1nnnn1-c1cccnc1)Nc1ccccc1F  15.4%
11. Cc1cccc(N2C(=O)N3[C@H](c4ccc(Br)cc4)[C@@H]4C(=O)N(C(C)(C)C)C(=O)[C@@H]4[C@]3(Cc3ccc(Cl)cc3)C2=O)c1  14.7%
12. CC(=O)/C(=N\Nc1ccc(Cl)cc1Cl)Sc1cccc2cccnc12  14.1%
13. Cc1ccnc(SCCn2c(N3CCN(C)CC3)nc3c2c(=O)n(C)c(=O)n3C)n1  13.6%
14. O=C(O)CC(C(=O)O)c1ccc(OCCCCOc2ccc(C(CC(=O)O)C(=O)O)cc2)cc1 (stereo not shown)  13.4%
15. O=C(NCCc1csc(-c2cccnc2)n1)c1ccco1  13.4%
16. COc1cc(CC(=O)NCCc2ccc(S(N)(=O)=O)cc2)cc(OC)c1OC  13.1%
17. Clc1nc2ccccc2cc1-c1nnn(-c2ccccc2)n1  12.1%
18. COc1ccc(OCc2nc3c4cc(OC)c(OC)cc4nc(=S)n3[nH]2)cc1  11.7%
19. COC(=O)c1c(C#N)c(N)nc2c1CCCC2  11.5%
20. O=C1OC(c2ccccc2)=C/C1=C/c1cccs1  10.8%
21. COc1ccc(N=C2C(=Nc3ccc(OC)cc3)N(c3ccc(OC)cc3)C(=S)N2C)cc1  10.5%
22. COC(=O)c1[nH]c(C)c(/C(O)=C2\C(=O)C(=O)N(CCN3CCOCC3)C2c2cccs2)c1C (stereo not shown)  9.33%
23. COc1ccc(C(=O)NC(=O)COC(=O)c2ccc3ncsc3c2)cc1  9.23%
24. O=C1CC(c2ccc(Cl)cc2)CC(=O)C1CS(=O)(=O)c1ccccc1 (stereo not shown)  8.77%
25. O=C(Nc1ccc(S(=O)(=O)N2CCc3ccccc32)cc1)C(F)(F)F  8.75%
26. CC(=O)c1c(C)[nH]c(C(=O)CN2CCN(S(=O)(=O)c3ccc(C(C)C)cc3)CC2)c1C  8.27%
27. CCn1c(SCC(=O)Nc2nnc(C)s2)nnc1-c1ccncc1  7.45%
28. CSc1ccc(C2C(C#N)=C(N)Oc3cc4c(cc32)OCO4)cc1 (stereo not shown)  7.1%
29. O=c1[nH]c(NC2CCCCC2)nnc1Cc1ccccc1  6.98%
30. CC(=O)NC(CC(=O)NNC(=O)c1cc2ccccc2cc1O)c1ccccc1 (stereo not shown)  6.83%
31. COc1ccc(CCC(=O)Nc2nnc(C)s2)cc1  6.76%
32. CCOC(=O)CC1C(=O)NCCN1Cc1cccs1 (stereo not shown)  6.33%
33. C#CCSc1nncn1C(=O)/C=C/c1ccccc1  5.54%
34. O=C(O)c1cc(/C=C/c2ccc(N3CCOCC3)c([N+](=O)[O-])c2)nc2ccccc12  5.51%
35. NC(=O)C1CCN(C(=O)COc2ccc3c4c(c(=O)oc3c2)CCC4)CC1  5.37%
36. Oc1ccc(Br)cc1/C=N/NC(=S)NCCc1ccccc1  4.94%
37. CC1CCCC(C)N1S(=O)(=O)c1ccc(S(=O)(=O)N2CCOCC2)cc1 (stereo not shown)  4.83%
38. COCCNC(=O)CSc1ccc(-c2nc3ccccc3[nH]2)cn1  4.62%
39. COc1cccc(/C=C/C(=C2/C(=O)N(c3ccccc3)N=C2C)c2ccc(Br)cc2)c1OC  4.39%
40. COc1ccc2nc(NC(=O)Cc3cccs3)sc2c1  4.23%
41. COc1ccc(CC(=O)OCC(=O)N2CCCc3ccccc32)cc1  3.67%
42. COc1cccc(CC(NC(C)=O)C(=O)NC2CCN(S(=O)(=O)c3ccc4ccccc4c3)CC2)c1 (stereo not shown)  3.4%
43. C1=C(c2ccccc2)CCNC1.Cl  2.61%
44. COC(=O)c1ccc(SCC(=O)NCc2ccccc2)c([N+](=O)[O-])c1  2.47%
45. N/C(=N\c1nc2c(c(=O)[nH]1)CCCC2)Nc1ccc(Oc2ccccc2)cc1  1.8%
46. NC(=O)CSC1=Nc2ccccc2C2=NC(c3ccccc3)C(=O)N12 (stereo not shown)  1.61%
47. COc1ccc2nc(N/C(N)=N/S(C)(=O)=O)nc(C)c2c1  1.56%
48. CCOCCOC(=O)c1[nH]c2c(c1C)C(=O)CC(c1ccc(N(C)C)cc1)C2 (stereo not shown)  0.636%
49. Cc1ccccc1N1CCN(C2CCCN(C(=O)CCN3CCCO3)C2)CC1 (stereo not shown)  -0.397%
50. Cc1ccc(C)c(N2CCN(C(=O)c3ccc4nsnc4c3)CC2)c1  -1.44%
51. Cc1cc(Oc2cc(NN3CCCCC3)c([N+](=O)[O-])cc2[N+](=O)[O-])ccc1[N+](=O)[O-]  -1.87%
52. COc1cc(/C=N/n2c(SC)nnc(C(C)(C)C)c2=O)ccc1O  -2.48%
53. COc1ccc(F)cc1S(=O)(=O)NCc1ccccc1  -3.36%
54. CCC(Oc1ccccc1)C(=O)N1CCN(S(=O)(=O)c2ccccc2)CC1 (stereo not shown)  -3.89%
55. CCCCCCCOC1(c2ccccc2)OC(=O)c2ccccc21 (stereo not shown)  -4.42%
56. CN(C)P(=S)(Nc1ccccc1)C(Cl)(Cl)Cl (stereo not shown)  -7.41%
57. O=C(COC(=O)C1=COCCO1)Nc1cc(S(=O)(=O)N2CCCCC2)ccc1Cl  -7.45%
58. O=C(/C=C/c1ccccc1)N/C(=C/c1ccccc1)C(=O)NCCCO  -7.96%
59. CN(C)CCCNC(=O)C(=O)NCC1OCCN1S(=O)(=O)c1cc(F)ccc1F (stereo not shown)  -8.23%
60. COc1ccc(S(=O)(=O)N=C2C=C(C)C(=O)C(C)=C2)cc1  -8.48%
61. CC(=O)c1ccc(NC(=O)CC23CC4CC(C2)CC(n2nnc(C)n2)(C4)C3)cc1  -8.69%
62. CC(C)[C@@H](C(=O)OCC(=O)Nc1ccc2c(c1)OCO2)N1C(=O)c2ccccc2C1=O  -10.2%
63. COCCN(CC1CCCN(C2Cc3ccccc3C2)C1)C(=O)CSC (stereo not shown)  -10.7%
64. CCN(C(=O)COc1nc(C)cc(C)c1C#N)c1ccccc1  -11.8%
65. O=S(=O)(CC(CN1CCCCC1)N1CCCCC1)c1ccccc1 (stereo not shown)  -14%
66. O=S(=O)(Cc1noc(-c2ccc(OC(F)(F)F)cc2)n1)c1ccc(F)cc1  -14.8%
67. CC(NC(=S)Nc1ccccc1Cl)C(c1ccccc1)N1CCOCC1 (stereo not shown)  -15.2%
68. CCCCC(=O)Nc1cnc(NC(=O)c2cccs2)cc1C  -17.5%
69. Cc1ccc(S(=O)(=O)N2CCN(C)CC2)cc1-c1nnc2c3ccccc3c(C)nn12  -17.6%
70. CCN(CC)CCCNC(=S)N1CCn2c(nc3ccccc32)C1  -18.6%
71. O=C(COc1ccc(S(=O)(=O)N2CCOCC2)cc1)Nc1ccc2c(c1)OCCO2  -19.1%
72. CC[C@@H]1[C@H]2CCCC(=O)N3CC[C@@H](C[C@@H]1OC(=O)Nc1ccccc1)[C@@H]23  -19.3%
73. COc1ccc(OCCSc2nnc(-c3ccoc3C)n2C)cc1  -19.7%
74. O=C(CCc1ccccc1)N1CCN(c2ccc(F)cc2)CC1  -23%
75. CC(=O)c1ccc(S(=O)(=O)N(CCCO)Cc2cc3cc(C)ccc3[nH]c2=O)cc1  -25.9%
76. Cc1ccc(NC(=O)COC(=O)CCC(=O)c2cccs2)cc1S(=O)(=O)N1CCOCC1  -26.3%
77. NNC(=O)CNC(c1ccccc1)c1cc(Br)ccc1NC(=O)c1ccc(Br)cc1 (stereo not shown)  -27.1%
78. COc1ccc(-n2c(Cc3cccs3)nnc2SCC(=O)Nc2ccc3c(c2)OCCO3)cc1  -31.1%
79. Cc1cc(-c2ccc(C)c(S(=O)(=O)NCCCN3CCN(c4ccccc4)CC3)c2)on1  -33.2%
80. CCN(C(=O)c1cnc(NC(C)C)cc1C(F)(F)F)c1ccc(Cl)cc1  -36.4%
81. O=C1Nc2cc(C(=O)NCCCN3CCCC3)ccc2S/C1=C\c1ccccc1  -51.4%
82. Cc1cc2oc(=O)cc(CN3CCN(Cc4ccccc4)CC3)c2cc1O  -53.3%
83. Cc1cccn2c(=O)c3cc(C#N)c(=O)n(CCCN4CCOCC4)c3nc12  -60.7%
84. COc1ccc(-c2cc(C)no2)cc1S(=O)(=O)NCC1CCN(Cc2cc(C)ccc2C)CC1  -72%
85. Clc1ccc2c(c1)C(c1ccccc1Cl)=NCc1nnc(N3CCN(CCOc4ccccc4)CC3)n1-2.O=C(O)/C=C/C(=O)O  -72.7%
